Laboratory results published in publication PMC13083723 (Patterns, 2026).
Among all 5,400 compounds or so, about 190 (3.5%) showed an effect of 50% or more. The list shows a part of the results.

These compounds were tested on Vero-E6 (assay: primary screen, phospholipidosis by LipidTOX staining; higher = more effect of the substance). Conditions: 10 µM.
Summary of the method: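 Single-concentration screen at 10 μM, with DMSO 0.1 v/v % and amiodarone 10 μM as controls. Read-out is LipidTOX Red phospholipid staining, which tolerates aldehyde fixation, in Vero-E6 cells.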

SMILES	result_ITMP [%]
Cc1cc(OI)c(C(C)C)cc1-c1cc(C(C)C)c(OI)cc1C	1.31
Cc1nc(N(C)C(=O)Cc2ccc(-c3ccccn3)cc2)sc1S(N)(=O)=O	1
CC(=O)OCC(=O)[C@@]12OC3(CCCC3)O[C@@H]1C[C@H]1[C@@H]3CCC4=CC(=O)C=C[C@]4(C)[C@@]3(F)[C@@H](O)C[C@@]12C	-2.65
COc1ccc(CC(=O)NC(N/C(=N/C#N)Nc2cccc3ncccc23)C(C)(C)C)cc1OC (stereo not drawn)	-2
CCN1CCCC1=O	8.03
NS(=O)(=O)Oc1ccc2c3c(c(=O)oc2c1)CCCCC3	0.16
N[C@@H](CC(=O)N1CCn2c(nnc2C(F)(F)F)C1)Cc1cc(F)c(F)cc1F	4.25
CO/N=C(/C(=O)N[C@@H]1C(=O)N2C(C(=O)[O-])=C(CSc3nc(=O)c([O-])nn3C)CS[C@H]12)c1csc(N)n1	-8.18
Cn1cc(C2=C(c3cn(CCCSC(=N)N)c4ccccc34)C(=O)NC2=O)c2ccccc21	15.8
O=C(NCc1ccc2c(c1)OCO2)c1c(Cl)cccc1Cl	-2
COCCCOc1ccnc(CS(=O)c2nc3ccccc3[n-]2)c1C (stereo not drawn)	-0.77
C[C@@H]1O[C@@H](O[C@H]2[C@H](Oc3cc(O)c4c(c3)O[C@H](c3ccc(O)cc3)CC4=O)O[C@H](CO)[C@@H](O)[C@@H]2O)[C@H](O)[C@H](O)[C@H]1O	3.7
CCOC(=O)c1cncn1[C@H](C)c1ccccc1	-4.52
COC(=O)[C@@H](N)Cc1ccc(O)c(O)c1	-5.89
C[C@]12CCC(=O)C=C1C=C[C@@H]1[C@@H]2CC[C@@]2(C)[C@H]1CC[C@@]21CCC(=O)O1	6.9
CC1CCc2c(cc(Br)c(F)c2Br)N1C=O (stereo not drawn)	-1.34
C[C@]12CC[C@@H]3c4ccc(O)cc4C[C@@H](CCCCCCCCCS(=O)CCCC(F)(F)C(F)(F)F)C3[C@@H]1CC[C@@H]2O (stereo partly drawn)	-0.13
Cc1cc2c(cc1CC(=O)c1sccc1S(=O)(=O)[N-]c1onc(C)c1Cl)OCO2	-1.86
CC1(C)CC(=O)c2c(C(F)(F)F)nn(-c3ccc(C(N)=O)c(N[C@H]4CC[C@H](OC(=O)CN)CC4)c3)c2C1	1.95
CS(=O)(=O)Oc1ccc2c(NC(N)=O)c(C(=O)c3ccc(Cl)cc3Cl)oc2c1	-6.53
CC1(C)[C@@H](O)CC[C@]2(C)[C@H]3C(=O)C=C4[C@@H]5C[C@@](C)(C(=O)O)CC[C@]5(C)CC[C@@]4(C)[C@]3(C)CC[C@@H]12	-4.77
